Some of the results follow. Sequences were assembled here from the parent chain. Inactive controls read about 0.05.
B1: TEV protease; numbered along this chain (parent)
chain: MGESLFKGPRDYNPISSSICHLTNESDGHTTSLYGIGFGPFIITNKHLFRRNNGTLVVQSLHGVFKVKDTTTLQQHLVDGRDMIIIRMPKDFPPFPQKLKFREPQREERICLVTTNFQTKSMSSMVSDTSCTFPSGDGIFWKHWIQTKDGQCGSPLVSTRDGFIVGIHSASNFTNTNNYFTSVPKNFMELLTNQEAQQWVSGWRLNADSVLWGGHKVFMVKPEEPFQPVKEATQL

Variants of: B1
Assay: raw area under fraction-flipped curve 0-4 h after induction (AUC4h, not background-subtracted), DNA-recorder readout of cleavage of the substrate (dimensionless); higher = more cleavage of the substrate by the protease variant
Conditions: temperature: 34 °C; time window: 0-4 h after rhamnose induction
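Note: Bxb1 expression induced with 0.2% (w/v) L-rhamnose at OD600 near 0.5, cultures sampled hourly, flipped fraction per protease–substrate barcode pair counted by paired-end Illumina sequencing.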

Variant | area with substrate CNLYFQS | area with substrate FNLYFQS | area with substrate GNLYFQS | area with substrate INLYFQS | area with substrate KNLYFQS | area with substrate LNLYFQS | area with substrate MNLYFQS | area with substrate NNLYFQS | area with substrate PNLYFQS | area with substrate RNLYFQS | area with substrate SNLYFQS | area with substrate TNLYFQS | area with substrate VNLYFQS | area with substrate WNLYFQS | area with substrate YNLYFQS | area with substrate DNLYFQS | area with substrate HNLYFQS | area with substrate QNLYFQS
W144P | 0.0755 | 0.0616 | 0.0783 | 0.0645 | 0.0722 | 0.0631 | 0.0572 | 0.0537 | 0.0737 | 0.0607 | 0.0566 | 0.0736 | 0.0594 | 0.0684 | 0.0496 |  |  | 
C152F | 0.0566 | 0.0391 |  | 0.0582 | 0.0668 | 0.0665 | 0.0603 | 0.0613 |  |  | 0.0565 | 0.065 |  | 0.0623 | 0.0626 | 0.0551 | 0.062 | 
R160N | 0.0717 |  |  |  | 0.0767 | 0.0763 | 0.069 | 0.0708 | 0.0693 |  | 0.0682 | 0.0904 |  | 0.0631 |  | 0.0874 |  | 
H168D | 0.0571 | 0.0573 | 0.0567 | 0.0783 | 0.0762 | 0.0581 | 0.0499 | 0.0626 | 0.055 |  | 0.0678 | 0.0341 | 0.0379 | 0.0544 | 0.0493 | 0.0573 | 0.0571 | 0.0662
H168K | 0.0517 |  | 0.0542 |  | 0.0593 |  |  | 0.0573 |  | 0.0795 |  | 0.0642 | 0.0451 | 0.0572 | 0.0591 |  | 0.0563 | 
H168M | 0.0586 | 0.0649 | 0.0651 | 0.0608 | 0.0704 | 0.0639 | 0.0468 | 0.0621 | 0.0591 | 0.0625 | 0.0662 | 0.0576 | 0.0834 | 0.0633 | 0.0598 | 0.0525 | 0.0635 | 
H168N | 0.049 |  | 0.0535 |  |  |  |  | 0.0996 | 0.0542 | 0.0568 |  |  |  | 0.0546 |  |  |  | 
H168Q | 0.053 | 0.0607 | 0.0529 | 0.0259 | 0.073 | 0.0461 | 0.0587 | 0.0969 | 0.0536 |  | 0.0217 | 0.0518 | 0.0518 | 0.0609 | 0.0578 |  | 0.0534 | 0.0508
T176C | 0.0735 |  |  |  | 0.0611 |  |  |  | 0.0615 | 0.0568 | 0.0553 | 0.0629 |  | 0.0578 | 0.0427 |  | 0.0662 | 
T176M | 0.0564 | 0.051 | 0.0684 |  | 0.0639 | 0.0535 |  |  |  | 0.0626 |  | 0.0554 |  | 0.0474 | 0.0669 | 0.0696 | 0.0484 | 0.0701
T176N | 0.066 |  |  |  |  |  |  | 0.0613 | 0.0605 | 0.0484 |  | 0.0629 |  | 0.0697 | 0.0658 |  | 0.0645 | 
T176R | 0.0959 |  |  |  |  | 0.0669 | 0.0632 | 0.0621 |  |  | 0.0533 |  |  |  |  |  | 0.0638 | 0.0637
T176S | 0.0618 | 0.0812 |  |  | 0.0686 | 0.059 |  | 0.0685 | 0.0603 | 0.0503 | 0.0631 |  | 0.0626 | 0.053 |  | 0.0739 | 0.066 | 
P184I | 0.0785 | 0.0597 | 0.061 | 0.0571 | 0.0694 | 0.0707 | 0.0401 | 0.0541 | 0.0781 |  | 0.0632 | 0.0575 | 0.0549 | 0.0651 | 0.053 | 0.0773 | 0.104 | 0.0584
P184L | 0.0669 | 0.055 | 0.0735 |  |  | 0.0656 | 0.0641 |  | 0.0517 | 0.0535 |  |  | 0.0049 | 0.0416 | 0.06 | 0.0633 | 0.0489 | 
P184N | 0.0611 | 0.0548 |  | 0.065 | 0.0715 | 0.0507 | 0.0816 | 0.0538 | 0.0647 |  | 0.0421 | 0.0531 | 0.0649 | 0.06 |  | 0.0449 | 0.0562 | 
T192G | 0.058 |  |  |  |  | 0.0534 |  |  | 0.0701 |  | 0.0649 | 0.0057 | 0.0684 |  | 0.065 | 0.0743 |  | 
T192H | 0.0744 | 0.0713 | 0.066 |  | 0.0706 | 0.0727 |  |  |  |  |  | 0.0739 | 0.0479 | 0.0517 | 0.045 |  | 0.0609 | 
T192Q | 0.0614 | 0.0693 | 0.0634 | 0.0686 | 0.0602 | 0.0573 | 0.0635 | 0.0519 | 0.0671 | 0.0706 | 0.0825 | 0.0672 | 0.0793 | 0.0627 | 0.0588 | 0.0801 | 0.0654 | 
V200P | 0.053 | 0.0614 | 0.0719 |  |  |  |  |  | 0.0618 |  |  | 0.0574 |  | 0.0554 |  | 0.077 |  | 0.0559
V200T | 0.0377 |  | 0.0748 | 0.0574 | 0.0775 | 0.0716 |  |  |  | 0.0826 | 0.072 |  |  | 0.0602 |  |  | 0.0804 | 
D208K | 0.072 | 0.0702 |  | 0.061 | 0.0568 |  |  |  |  |  |  |  |  | 0.0719 |  |  | 0.0591 | 
D208Q | 0.0623 |  |  | 0.0549 | 0.0624 | 0.0588 |  |  | 0.051 |  |  |  | 0.0529 | 0.0422 | 0.0466 |  | 0.063 | 
K216G | 0.0487 |  | 0.0616 | 0.0563 |  | 0.0522 | 0.0451 | 0.0555 | 0.0574 | 0.0494 | 0.0416 | 0.0533 | 0.0504 | 0.0451 | 0.0532 |  | 0.0467 | 0.0543
K216H | 0.068 | 0.0548 |  |  |  | 0.0702 |  | 0.0583 | 0.0592 |  | 0.0639 | 0.0758 | 0.0758 | 0.0503 |  | 0.0696 | 0.0598 | 0.0804
K216S | 0.0554 |  |  |  |  | 0.0498 | 0.0653 |  | 0.0729 |  |  |  |  |  | 0.0784 |  | 0.0737 | 
E224C | 0.0724 |  |  | 0.0591 | 0.0768 | 0.0667 | 0.0791 |  | 0.0681 |  | 0.0601 | 0.0597 | 0.0762 | 0.0642 | 0.0585 | 0.0755 | 0.071 | 
E224K | 0.0579 | 0.0576 | 0.0474 | 0.0521 | 0.0901 | 0.0408 | 0.0568 | 0.053 | 0.0643 | 0.0652 | 0.0789 |  |  | 0.0613 | 0.0739 | 0.081 | 0.0678 | 
E224N | 0.0694 | 0.0682 | 0.0489 |  | 0.063 | 0.0633 |  | 0.0706 | 0.0692 |  |  | 0.0623 | 0.0634 | 0.0713 |  | 0.0824 | 0.0696 | 
E224R | 0.0441 |  |  | 0.075 |  |  |  |  | 0.0437 |  | 0.0726 | 0.0667 |  |  | 0.0601 |  | 0.0656 | 
